Laboratory results taken from US20260008862A1, “Bispecific Anti-BCMA x Anti-CD3 Antibodies and Uses Thereof” (Regeneron Pharmaceuticals, Inc., priority 2018, published 2026).

Experiments:
[1] = target: T1, human BCMA-MMH (Homo sapiens, UniProt Q02223); assay: SPR (Biacore 4000) binding kinetics to human BCMA-MMH; conditions: 25° C.
T1 construct: (human BCMA-MMH); myc-myc-hexahistidine (C); made in house
Procedure: (§1) The CM5 Biacore sensor surface was derivatized by amine coupling with a monoclonal mouse anti-human Fc antibody (GE, #BR-11008-39) to capture purified anti-BCMA mAbs and anti-BCMA×anti-CD3 bispecific mAbs. All Biacore binding studies were performed in a buffer composed of 0.01 M HEPES pH 7.4, 0.15M NaCl, 3 mM EDTA, 0.05% v/v Surfactant P20 (HBS-ET running buffer). […] Antigen samples were then injected over the anti-BCMA and anti-BCMA×anti-CD3 bispecific mAbs captured surfaces at a flow rate of 30 μL/minute. Antibody-reagent association was monitored for 5 minutes while dissociation in HBS-ET running buffer was monitored for 10 minutes. All of the binding kinetics experiments were performed at 25° C. Kinetic association (ka) and dissociation (kd) rate constants were determined by fitting the real-time sensorgrams to a 1:1 binding model using Scrubber 2.0c curve fitting software. Binding dissociation equilibrium constants (KD) and dissociative half-lives (t½) were calculated from the kinetic rate constants as: […]

[2] = target: T2, human BCMA-MFC (Homo sapiens, UniProt Q02223); assay: SPR (Biacore 4000) binding kinetics to human BCMA-MFC; conditions: 25° C.
T2 construct: (human BCMA-MFC); made in house
T2 sequence (Q02223 with tags, fused parts or gaps): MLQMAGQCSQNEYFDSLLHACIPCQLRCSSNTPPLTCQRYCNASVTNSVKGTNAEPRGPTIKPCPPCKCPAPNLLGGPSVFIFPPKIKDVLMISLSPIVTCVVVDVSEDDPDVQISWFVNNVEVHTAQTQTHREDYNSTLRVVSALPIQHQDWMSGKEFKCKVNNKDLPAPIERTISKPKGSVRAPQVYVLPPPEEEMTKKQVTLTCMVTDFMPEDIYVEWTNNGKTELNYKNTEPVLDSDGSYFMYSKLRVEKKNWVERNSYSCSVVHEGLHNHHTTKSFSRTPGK
Procedure: as §1

[3] = test system: monkey BCMA-MFC; assay: SPR (Biacore 4000) binding kinetics to monkey BCMA-MFC; conditions: 25° C.; 30 nM antigen
Procedure: as §1

[4] = test system: mouse BCMA-MFC; assay: SPR (Biacore 4000) binding kinetics to mouse BCMA-MFC; conditions: 25° C.
Procedure: as §1

T1 sequence (Q02223 with tags, fused parts or gaps): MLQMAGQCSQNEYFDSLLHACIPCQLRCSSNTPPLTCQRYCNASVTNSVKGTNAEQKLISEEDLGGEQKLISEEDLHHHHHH

ka [1]: 841000 M⁻¹ s⁻¹
kd [1]: 0.00299 s⁻¹
ka [2]: 862000 M⁻¹ s⁻¹
kd [2]: 8.35e-05 s⁻¹
30 nM mfBCMA.mFc Bind (RU) [3]: 3.2 RU
ka [4]: 205000 M⁻¹ s⁻¹
kd [4]: 0.00385 s⁻¹
B1: mAb16716: anti-BCMA antibody, HCVR/LCVR SEQ ID NOs 18/26 (antibody, V domains shown)
VH: [about 100 residues not listed]RAGDNWNWFDPWGQGTLVTVSS
VL: DIQMTQSPSSVSASLGDRVTITCRASQGISSWLAWYQRKPGKAPKLLIYAASSLQSGVPSRFSGSGSGADFTLTISSLQPEDFATYYCQQAKSVPFTFGPGTKVDIK
